“And” between values parts separate entries of the source, which are not always exact repeats. Identical values can stand only once. The shares of active, inactive and inconclusive entries below differ from those in the screen. Where the call is inconclusive, the potency comes from a doubtful curve fit. The source made the active and inactive calls. The call rests on the fitted dose curve; in most records, active means well fitted inhibition curve with a large enough effect in the signal ratio in the repeat runs (not every such curve was filed as active); inconclusive means weak or mixed curves, or effect the other way; inactive means no such curve, though single readings can be large or run the other way; the % refers to the signal ratio.
Target: Estrogen receptor beta (Homo sapiens) (UniProt Q92731)
Assay: qHTS assay to identify small molecule antagonists of the estrogen receptor beta (ER-beta) signaling pathway (AID 1259378)
Conditions: ER-beta-UAS-bla HEK293T, beta-lactamase FRET ratio, 16 h; activity, negative = inhibition: at 92.4 µM (top of the series) unless noted
From the text: National Center for Advancing Translational Sciences [NCATS]
NIH Chemical Genomics Center [NCGC]
U.S. Environmental Protection Agency [EPA]
National Institutes of Environmental Health Sciences [NIEHS]
National Toxicology Program [NTP]
U.S. Food and Drug Administration [FDA]
Estrogen receptor (ER), a nuclear hormone receptor, plays an important role in development, metabolic homeostasis and reproduction. Two subtypes of ER, ER-alpha and ER-beta, have similar expression patterns with some uniqueness in both types. Endocrine disrupting chemicals (EDCs) and their interactions with steroid hormone receptors like ER causes disruption of normal endocrine function. To identify the compounds that inhibit ER signaling, an ER-beta-UAS-bla GripTite cell line (Life Technologies, Madison, WI, USA) containing a beta-lactamase reporter gene under the control of an UAS response element was used to screen Tox21 10K compound library.
Tox21 Assay Protocol Summary:
ER-beta-UAS-bla HEK293T cells were dispensed at 2,000 cells/4 uL of assay medium containing 2% charcoal stripped FBS per well into black wall/clear-bottom 1536-well plates using a Multidrop Combi (ThermoFisher Scientific, Waltham, MA) dispenser. After the assay plates were incubated at a 37C and 5% CO2 for 6 hr, 23 nL of compounds dissolved in DMSO, positive controls or DMSO only was transferred to the assay plate by a Pintool station (Kalypsys, San Diego, CA), followed by addition of 1 uL (1nM as final concentration) of 17-beta-estradiol (E2) in assay medium using a BioRAPTR FRD (Flying Reagent Dispenser, Aurora Discovery, San Diego, CA). The plates were incubated at 37C and 5% CO2 for 16 hr. Then 1 uL of LiveBLAzerTM B/G FRET substrate was added using a Flying Reagent Dispenser, the plates were incubated at room temperature for 2 hours, and fluorescence intensity was measured by an Envision plate reader (PerkinElmer, Shelton, CT).
On the % scale 0 is the no-effect control and ±100 the full control effect; potency means the concentration at half of the fitted maximal effect; tags describe the fitted curve by direction and shape or compound fluorescence and quenching.

UniProt Q92731, sequence (Q92731 whole entry, looked up): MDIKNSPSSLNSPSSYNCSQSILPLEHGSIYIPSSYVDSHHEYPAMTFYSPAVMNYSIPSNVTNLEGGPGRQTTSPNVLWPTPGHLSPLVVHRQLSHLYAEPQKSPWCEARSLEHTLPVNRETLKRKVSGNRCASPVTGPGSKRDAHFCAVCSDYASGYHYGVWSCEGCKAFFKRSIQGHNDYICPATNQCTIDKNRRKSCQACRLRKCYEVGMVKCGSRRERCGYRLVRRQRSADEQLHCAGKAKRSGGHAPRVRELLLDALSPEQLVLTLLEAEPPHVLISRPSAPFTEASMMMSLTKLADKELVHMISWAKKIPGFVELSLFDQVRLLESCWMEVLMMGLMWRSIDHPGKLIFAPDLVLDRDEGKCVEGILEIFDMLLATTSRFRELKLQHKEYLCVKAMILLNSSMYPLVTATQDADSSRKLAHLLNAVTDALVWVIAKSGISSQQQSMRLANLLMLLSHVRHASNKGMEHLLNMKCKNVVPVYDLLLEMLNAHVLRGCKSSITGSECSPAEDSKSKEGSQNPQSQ

Structure (SMILES)	Potency	activity, negative = inhibition
COc1ccc(C(c2ccc(OC)cc2)C(Cl)(Cl)Cl)cc1	inconclusive: 14.4 µM	
OCC(c1ccc(Cl)cc1)c1ccc(Cl)cc1	inconclusive: 54.5 µM [inhibitor, partial curve]	
Oc1ccc(-c2ccccc2)cc1	inconclusive: 19.1 µM	inconclusive: -53.6%
Oc1ccc2ccc3cccc4ccc1c2c34		inconclusive: -56.9%
CCCCOC(=O)c1ccccc1C(=O)OCc1ccccc1	active: 6.1 µM and active: 9.15 µM	
C[C@@H]1O[C@@H](O[C@@H]2C=C3CC[C@@H]4[C@H](CC[C@]5(C)[C@@H](c6ccc(=O)oc6)CC[C@]45O)[C@@]3(C)CC2)[C@H](O)[C@H](O)[C@H]1O	inconclusive: 0.106 µM [rising, full curve]	
O=C/C(Cl)=C(/Cl)C(=O)O	inconclusive: 68.5 µM [inhibitor, single point]	inconclusive: -49.8%
CCC(C)c1cc([N+](=O)[O-])cc([N+](=O)[O-])c1OC(=O)C=C(C)C (stereo not given)		inconclusive: -44.7%
Clc1ccc(C(Cl)(Cl)Cl)cc1Cl		inactive: -21.2%
CCCCCCCC[N+](C)(CCCCCCCC)CCCCCCCC	inconclusive: 27.3 µM [cytotoxic, full curve] and active: 17.2 µM and inconclusive: 43.3 µM [cytotoxic, partial curve]	
O=C([O-])c1ccccn1.O=C([O-])c1ccccn1.O=C([O-])c1ccccn1.[Cr+3]		inactive: 1.4%
C=CC(=O)[O][Sn]([CH2]CCC)([CH2]CCC)[CH2]CCC	inconclusive: 15.4 µM [cytotoxic, partial curve]	
Brc1ccc(Oc2cc(Br)c(Br)cc2Br)c(Br)c1	inactive	
Oc1cc(Cl)ccc1Oc1ccc(Cl)cc1Cl	inconclusive: 66.3 µM [cytotoxic]	inconclusive: -26.6% [at 42.5 µM]
Nc1ccncc1	inactive	
O=[N+]([O-])c1cccc(O)c1		inconclusive: 4.07%
CN(C)c1ccc(N)cc1	active: 23.7 µM	

Structure (SMILES)	Potency	activity, negative = inhibition
Clc1ccc(C(c2ccc(Cl)cc2)C(Cl)(Cl)Cl)cc1	inconclusive: 77.5 µM [cytotoxic, single point] and active: 13.7 µM and active: 7.5 µM	
CN1CSC(=S)N(C)C1	active: 24.2 µM and inconclusive: 17.2 µM	
CCOP(=O)(OCC)Oc1nc(Cl)c(Cl)cc1Cl	inconclusive: 9.63 µM [rising, full curve]	
CCc1cccc(C)c1N(C(=O)CCl)C(C)COC (stereo not given)	inconclusive: 54.5 µM [inhibitor, partial curve]	inconclusive: -44.3%
CCOP(=S)(OCC)SCn1nnc2ccccc2c1=O	active: 68.6 µM	
C[C@@H]1C[C@@H]([C@H](O)CC2CC(=O)NC(=O)C2)C(=O)[C@@H](C)C1	inconclusive: 770 nM [activator, full curve] and inconclusive: 1.19 µM [activator, full curve]	inconclusive: -43.6%
C[C@]12CC[C@H](O)CC1=CC[C@@H]1[C@@H]2CC[C@]2(C)C(=O)CC[C@@H]12		inconclusive: -52.1%
CC1(C)C(C=C(Cl)Cl)C1C(=O)OC(C#N)c1cccc(Oc2ccccc2)c1 (stereo not given)	inactive	
O=[N+]([O-])c1cc(C(F)(F)F)c(Cl)c([N+](=O)[O-])c1Nc1ncc(C(F)(F)F)cc1Cl	inconclusive: 34.4 µM [cytotoxic, partial curve, poor fit]	
O=C1C(Cl)=C(Cl)C(=O)C(Cl)=C1Cl	inconclusive: 68.3 µM and inconclusive: 68.6 µM	
COC[C@@H](NC(C)=O)C(=O)NCc1ccccc1		inactive: 11% [at 42.5 µM]
CCC[CH2][Sn]([CH2]CCC)([CH2]CCC)[CH2]CCC	active: 19.3 µM	
ClC1=C(Cl)C2(Cl)C(CBr)CC1(Cl)C2(Cl)Cl (stereo not given)		inconclusive: -24.4%
CC1(C)C(/C=C(\Cl)C(F)(F)F)C1C(=O)OC(C#N)c1cccc(Oc2ccccc2)c1 (stereo not given)		inactive: 8.76%
CCOP(=S)(OCC)SC(CCl)N1C(=O)c2ccccc2C1=O (stereo not given)	active: 30.6 µM	
O=C1c2ccccc2C(=O)N1SC(Cl)(Cl)Cl	inconclusive: 26.9 µM [partial curve] and inconclusive: 24.3 µM	
C(=NC1CCCCC1)=NC1CCCCC1	inconclusive: 13.8 µM [inhibitor, full curve] and inconclusive: 15.4 µM [inhibitor, full curve]	

Same assay, conditions: ER-beta-UAS-bla HEK293T, beta-lactamase FRET ratio, 16 h; at 92.4 µM (top of the series)

Structure (SMILES)	activity, negative = inhibition
ClC1C(Cl)C(Cl)C(Cl)C(Cl)C1Cl (stereo not given)	inactive: 12.1% [middle of 4 runs]
